Measurements published in PMC6919601, “Identification of Plasmodium dipeptidyl aminopeptidase allosteric inhibitors by high throughput screening” (PLoS ONE, 2019).
Hit rate of the full screen: of about 110,000 compounds, about 230 (0.21%) showed an effect of 50% or more. The list shows a part of the results.

biological target: DPAP1 (Plasmodium falciparum, UniProt Q8IIJ9); assay: primary screen, percent inhibition; read by cleavage of a fluorogenic dipeptide substrate; higher = more effect of the substance; set-up: species or system P. falciparum D10 trophozoite lysates; single well
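Further: 30 min substrate incubation versus DMSO and 10 µM JCP410 controls.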

Chain of DPAP1 (Q8IIJ9 whole entry, looked up): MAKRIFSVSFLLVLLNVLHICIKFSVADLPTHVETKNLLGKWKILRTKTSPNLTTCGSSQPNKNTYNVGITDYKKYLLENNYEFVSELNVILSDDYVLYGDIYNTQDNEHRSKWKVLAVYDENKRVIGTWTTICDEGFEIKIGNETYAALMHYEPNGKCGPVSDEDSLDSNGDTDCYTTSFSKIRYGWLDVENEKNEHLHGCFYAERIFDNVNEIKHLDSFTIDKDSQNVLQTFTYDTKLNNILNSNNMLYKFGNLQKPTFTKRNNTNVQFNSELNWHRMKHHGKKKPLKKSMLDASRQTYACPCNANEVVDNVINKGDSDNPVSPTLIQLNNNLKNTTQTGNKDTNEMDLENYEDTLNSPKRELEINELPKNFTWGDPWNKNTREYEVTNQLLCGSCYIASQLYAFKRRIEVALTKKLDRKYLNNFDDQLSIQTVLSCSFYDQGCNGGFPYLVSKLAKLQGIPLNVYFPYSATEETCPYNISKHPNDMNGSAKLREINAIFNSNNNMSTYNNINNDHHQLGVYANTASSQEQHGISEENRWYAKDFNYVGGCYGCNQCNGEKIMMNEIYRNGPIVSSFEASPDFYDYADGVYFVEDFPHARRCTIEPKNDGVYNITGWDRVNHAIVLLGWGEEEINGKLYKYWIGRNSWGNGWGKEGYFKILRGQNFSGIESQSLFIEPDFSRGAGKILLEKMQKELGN

SMILES | % Inhibition @ 10 uM
CC(NC(=O)c1cccc(C(=O)NC(C)c2ccccc2)c1)c1ccccc1 (stereo not drawn) | 0.331%
Cc1ccc(S(=O)(=O)c2nnn3c2nc(NCCCOC(C)C)c2sccc23)cc1 | -0.256%
COc1ccc(NC(=O)CN2C(=O)c3ccccc3S2(=O)=O)cc1Cl | -3.77%
Cc1cccc(-n2nc3c(c2NC(=O)c2ccc4c(c2)OCO4)CS(=O)(=O)C3)c1C | 2.65%
COc1ccc(-c2ccccc2)cc1NCC[C@@H](C)CCC=C(C)C | 1.9%
CCOc1ccc(-c2cc(C(=O)NC(C)c3ccc4c(c3)OCCO4)[nH]n2)cc1 (stereo not drawn) | 6.41%
Cc1ccc(NC(=O)c2cc(S(=O)(=O)N3CCCCC3)c(Cl)cc2Cl)cc1 | 4.3%
COc1cccc(CN2CCC(Cc3ccccc3)CC2)c1O | -2.95%
C=CCSc1nnc(Cc2c(C)[nH]c3ccccc23)o1 | -0.958%
CC1=CC(C)(C)N(S(=O)(=O)c2ccc(C)cc2)c2ccccc21 | -6.18%
COc1ccc(S(=O)(=O)Nc2c(C)nn(Cc3c(F)cccc3Cl)c2C)cc1 | 1.96%
CCOc1ccc(NC(=O)C2CC(=O)N(C(=N)N)C(=N)S2)cc1 (stereo not drawn) | -5.6%
CCOc1ccccc1-n1c(CN2CCC(O)CC2)nc2ccccc2c1=O | 5.17%
O=C(NCCn1cccc1)c1cccc2ccccc12 | -4.49%
Cc1ccc2nc(NC(=O)C(CC(C)C)NS(=O)(=O)c3ccc4nc(C)sc4c3)sc2c1 (stereo not drawn) | -3.1%
CCN(CC)CCN(C)Cc1ccccc1 | 2.22%
CCN(Cc1ccccc1)C(=O)CSc1nc2nnc(C)c-2c(N)n1-c1cccc(C)c1 | -3.93%
CC1CCC(NCCCN2CCOCC2)C1 (stereo not drawn) | -3.42%
CCOC(=O)C1=C(C)OC(N)=C(C#N)C1c1cccc(Cl)c1Cl (stereo not drawn) | -0.197%
COc1ccc(NS(=O)(=O)c2ccc(NC(=O)Nc3ccc(Cl)cc3)cc2)cc1 | 4.83%
CC(c1ccccc1)N1CCC(O)CC1 (stereo not drawn) | 7.24%
Cc1[nH]c2ccccc2c1C(=O)CCC(=O)O | -1.59%
Cc1nnc2sc(-c3ccc4c(c3)OCO4)nn12 | -1.07%
CC(=O)Nc1ccc(S(=O)(=O)Nc2cccc(-c3cn4cccnc4n3)c2)cc1 | -3.45%
N=C1/C(=C\c2cccn2CCOc2ccc(Cl)cc2)C(=O)N=C2SC(N3CCCC3)=NN12 | 1.72%
CCC(Sc1nncn2c1cc1occc12)C(=O)NCc1ccco1 (stereo not drawn) | 0.616%
COc1ccccc1C1CC2=NC(C)=C(C(=O)OC(C)C)C(c3coc4ccccc4c3=O)C2=C(O)C1 (stereo not drawn) | -1.17%
